Target: T1, full-length 6His-Syp1 (S. cerevisiae, UniProt P25623 1-870)
T1 sequence (looked up): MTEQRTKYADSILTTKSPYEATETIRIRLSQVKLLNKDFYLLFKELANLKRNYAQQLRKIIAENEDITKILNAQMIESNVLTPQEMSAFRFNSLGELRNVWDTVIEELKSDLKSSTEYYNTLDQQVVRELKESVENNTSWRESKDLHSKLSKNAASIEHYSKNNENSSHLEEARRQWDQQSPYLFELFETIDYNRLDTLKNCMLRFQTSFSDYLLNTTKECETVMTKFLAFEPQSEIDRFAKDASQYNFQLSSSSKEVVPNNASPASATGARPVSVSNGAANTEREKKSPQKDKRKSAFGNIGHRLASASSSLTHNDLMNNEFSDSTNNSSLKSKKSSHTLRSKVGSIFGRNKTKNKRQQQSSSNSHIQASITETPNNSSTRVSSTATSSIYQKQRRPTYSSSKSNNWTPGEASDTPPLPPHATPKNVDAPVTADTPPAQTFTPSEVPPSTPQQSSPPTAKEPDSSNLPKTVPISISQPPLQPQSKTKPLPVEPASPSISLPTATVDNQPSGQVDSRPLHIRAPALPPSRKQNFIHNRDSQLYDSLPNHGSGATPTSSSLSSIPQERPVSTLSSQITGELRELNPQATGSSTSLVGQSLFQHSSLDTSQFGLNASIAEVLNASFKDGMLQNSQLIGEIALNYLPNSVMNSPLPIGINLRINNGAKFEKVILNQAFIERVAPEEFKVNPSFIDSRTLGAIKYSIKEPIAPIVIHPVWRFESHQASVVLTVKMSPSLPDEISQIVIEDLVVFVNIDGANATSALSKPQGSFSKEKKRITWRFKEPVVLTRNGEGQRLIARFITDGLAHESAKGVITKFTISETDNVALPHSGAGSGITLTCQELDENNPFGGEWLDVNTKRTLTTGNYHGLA
Assay: pull-down

B1: full-length Las17/WASp (natural protein)
chain: not shown
  binding result: binds
